Results on 10 molecules are retold here after the antibiotic and cytotoxicity screens of Wong et al. (2023).

Molecules are shown by their SMILES. The list shows a part of the results.

The assay deals with S. aureus RN4220. The assay is described as follows: growth inhibition call (relative growth <= 0.2). Particulars: 50 µM.
In the case of `C[C@@H]1CN([C@@H](C)CO)S(=O)(=O)c2ccc(-c3ccncc3)cc2O[C@@H]1CN(C)S(=O)(=O)c1ccccc1F`, the growth inhibition call is “inactive”.
For `C[C@@H]1CN([C@@H](C)CO)C(=O)CCCn2cc(nn2)CO[C@H]1CN(C)S(=O)(=O)c1ccc2ccccc2c1`, the growth inhibition call is “inactive”.
Regarding `COc1ccc(S(=O)(=O)Nc2ccc3c(c2)C(=O)N([C@@H](C)CO)C[C@@H](C)[C@H](CN(C)C(=O)c2ccccc2)OCCCC[C@H](C)O3)cc1`, the growth inhibition call was “inactive”.
In the case of `COc1ccccc1-c1ccc2c(c1)O[C@@H](CN(C)C(=O)c1cccnc1)[C@H](C)CN([C@H](C)CO)S2(=O)=O`, the growth inhibition call is “inactive”.
As to `C[C@H]1CN([C@@H](C)CO)C(=O)Cc2cc(NC(=O)Nc3ccccc3)ccc2O[C@H]1CN(C)C(=O)Nc1cccc2ccccc12`, the growth inhibition call was “inactive”.
Turning to `CO[C@H]1CN(C)C(=O)c2ccc(NC(=O)c3ccccc3)cc2OC[C@@H](C)N(C(=O)CN(C)C)C[C@H]1C`, the growth inhibition call is “inactive”.
As for `CN1CCN(C(=O)C[C@@H]2C[C@H]3c4cc(NC(=O)c5ccc6c(c5)OCO6)ccc4O[C@H]3[C@H](CO)O2)CC1`, the growth inhibition call was “inactive”.
With `COc1ccccc1S(=O)(=O)N[C@@H]1C=C[C@@H](CC(=O)N2CCN(C)CC2)O[C@@H]1CO` the entry was “inactive”; with `Cc1ccc(S(=O)(=O)N2C[C@@H](O)COC[C@H]3O[C@@H](CC(=O)NCc4ccc5c(c4)OCO5)CC[C@@H]32)cc1`, “inactive”; with `C[C@H](CO)N1C[C@H](C)[C@@H](CN(C)Cc2ccc(Cl)c(Cl)c2)OCCCC[C@H](C)Oc2ccc(NS(=O)(=O)c3ccccc3)cc2C1=O`, “inactive”.
